This is one part of the list. The full chains were built here from the parent and the listed change. Values near 0.05 are background.

Consider ten variants from the supplement of paper PMC12217912.

B1: TEV protease; numbered along this chain (parent)
chain: MGESLFKGPRDYNPISSSICHLTNESDGHTTSLYGIGFGPFIITNKHLFRRNNGTLVVQSLHGVFKVKDTTTLQQHLVDGRDMIIIRMPKDFPPFPQKLKFREPQREERICLVTTNFQTKSMSSMVSDTSCTFPSGDGIFWKHWIQTKDGQCGSPLVSTRDGFIVGIHSASNFTNTNNYFTSVPKNFMELLTNQEAQQWVSGWRLNADSVLWGGHKVFMVKPEEPFQPVKEATQL

The variants in the test derive from B1. The test can be described thus: raw area under fraction-flipped curve 0-4 h after induction (AUC4h, not background-subtracted), DNA-recorder readout of cleavage of the substrate (dimensionless); higher = more cleavage of the substrate by the protease variant. To be noted: temperature: 34 °C; time window: 0-4 h after rhamnose induction. As to the method:
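In vivo DNA recorder in E. coli TOP10(DE3) ΔrhaA at 34 °C. Each TEVp single-site mutant (parent TEVp 0) is paired with a single-site variant of the 7-mer TEVs (canonical ENLYFQ|S). The substrate sits between flexible linkers in a Bxb1-sfGFP-TEVs-SsrA fusion, so cleavage stabilises Bxb1 and speeds flipping of a recombination array, read by NGS. The value is the raw area under the fraction-flipped curve over 0-4 h after rhamnose induction (AUC4h), with ≥20 reads per time point. It is not background-subtracted; inactive controls average about 0.047.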
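Further: Bxb1 expression induced with 0.2% (w/v) L-rhamnose at OD600 near 0.5, cultures sampled hourly, flipped fraction per protease–substrate barcode pair counted by paired-end Illumina sequencing.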

On to MGESLFKGPRDYNPISSSICHLTNESDGHTTSLYGIGFGPFIITNKHLFRRNNGTLVVQNLHGVFKVKDTTTLQQHLVDGRDMIIIRMPKDFPPFPQKLKFREPQREERICLVTTNFQTKSMSSMVSDTSCTFPSGDGIFWKHWIQTKDGQCGSPLVSTRDGFIVGIHSASNFTNTNNYFTSVPKNFMELLTNQEAQQWVSGWRLNADSVLWGGHKVFMVKPEEPFQPVKEATQL [S60N], for which the “area with substrate ENLYAQS” value stood at 0.0705, the “area with substrate ENLYCQS” value was 0.0721, the “area with substrate ENLYDQS” value was determined as 0.0718 and the “area with substrate ENLYEQS” value was 0.0551. For the same variant, the “area with substrate ENLYGQS” value amounted to 0.0503, the “area with substrate ENLYHQS” value amounted to 0.0662, the “area with substrate ENLYMQS” value stood at 0.0639 and the “area with substrate ENLYPQS” value came out at 0.077. Besides, the “area with substrate ENLYQQS” value is 0.057, the “area with substrate ENLYSQS” value was 0.0724, the “area with substrate ENLYTQS” value worked out at 0.0803 and the “area with substrate ENLYVQS” value was 0.11.

As for MGESLFKGPRDYNPISSSICHLTNESDGHTTSLYGIGFGPFIITNKHLFRRNNGTLVVQILHGVFKVKDTTTLQQHLVDGRDMIIIRMPKDFPPFPQKLKFREPQREERICLVTTNFQTKSMSSMVSDTSCTFPSGDGIFWKHWIQTKDGQCGSPLVSTRDGFIVGIHSASNFTNTNNYFTSVPKNFMELLTNQEAQQWVSGWRLNADSVLWGGHKVFMVKPEEPFQPVKEATQL [S60I], the “area with substrate ENLYAQS” value amounted to 0.064, the “area with substrate ENLYDQS” value was 0.0201, the “area with substrate ENLYEQS” value was 0.0603 and the “area with substrate ENLYHQS” value worked out at 0.0591. For the same variant, the “area with substrate ENLYPQS” value was 0.0527, the “area with substrate ENLYQQS” value turned out to be 0.0555, the “area with substrate ENLYRQS” value stood at 0.0381 and the “area with substrate ENLYSQS” value amounted to 0.103. The “area with substrate ENLYVQS” value is 0.0882.

In the case of MGESLFKGPRDYNPISSSICHLTNESDGHTTSLYGIGFGPFIITNKHLFRQNNGTLVVQSLHGVFKVKDTTTLQQHLVDGRDMIIIRMPKDFPPFPQKLKFREPQREERICLVTTNFQTKSMSSMVSDTSCTFPSGDGIFWKHWIQTKDGQCGSPLVSTRDGFIVGIHSASNFTNTNNYFTSVPKNFMELLTNQEAQQWVSGWRLNADSVLWGGHKVFMVKPEEPFQPVKEATQL [R51Q], the “area with substrate ENLYAQS” value was determined as 0.0803, the “area with substrate ENLYEQS” value was found to be 0.0651, the “area with substrate ENLYGQS” value was determined as 0.0639 and the “area with substrate ENLYHQS” value was 0.082. Moreover, the “area with substrate ENLYIQS” value is 0.157, the “area with substrate ENLYKQS” value is 0.038, the “area with substrate ENLYMQS” value was determined as 0.102 and the “area with substrate ENLYNQS” value is 0.0734. For the same variant, the “area with substrate ENLYPQS” value came to 0.0737, the “area with substrate ENLYQQS” value worked out at 0.0597, the “area with substrate ENLYRQS” value was 0.069 and the “area with substrate ENLYSQS” value is 0.0738. The “area with substrate ENLYVQS” value turned out to be 0.123, the “area with substrate ENLYWQS” value came out at 0.0779 and the “area with substrate ENLYYQS” value stood at 0.062.

Consider MGESLFKGPRDYNPISSSICHLTNESDGHTTSLYGIGFGPFIITNKHLFRRNNGTLVVQSYHGVFKVKDTTTLQQHLVDGRDMIIIRMPKDFPPFPQKLKFREPQREERICLVTTNFQTKSMSSMVSDTSCTFPSGDGIFWKHWIQTKDGQCGSPLVSTRDGFIVGIHSASNFTNTNNYFTSVPKNFMELLTNQEAQQWVSGWRLNADSVLWGGHKVFMVKPEEPFQPVKEATQL [L61Y], for which the “area with substrate ENLYAQS” value amounted to 0.0619, the “area with substrate ENLYCQS” value was determined as 0.0965, the “area with substrate ENLYDQS” value was 0.0456 and the “area with substrate ENLYEQS” value turned out to be 0.072. Moreover, the “area with substrate ENLYKQS” value came out at 0.068, the “area with substrate ENLYPQS” value came out at 0.0598, the “area with substrate ENLYSQS” value came out at 0.0751 and the “area with substrate ENLYTQS” value was 0.0757. For the same variant, the “area with substrate ENLYVQS” value is 0.138.

Regarding MGESLFKGPRDYNPISSSICHLTNESDGHTTSLYGIGFGPFIITNKHLFRRNNGTLVVQSLQGVFKVKDTTTLQQHLVDGRDMIIIRMPKDFPPFPQKLKFREPQREERICLVTTNFQTKSMSSMVSDTSCTFPSGDGIFWKHWIQTKDGQCGSPLVSTRDGFIVGIHSASNFTNTNNYFTSVPKNFMELLTNQEAQQWVSGWRLNADSVLWGGHKVFMVKPEEPFQPVKEATQL [H62Q], the “area with substrate ENLYAQS” value stood at 0.0556, the “area with substrate ENLYDQS” value came out at 0.0577, the “area with substrate ENLYEQS” value came out at 0.0744 and the “area with substrate ENLYHQS” value was 0.0656. For the same variant, the “area with substrate ENLYIQS” value amounted to 0.116, the “area with substrate ENLYKQS” value amounted to 0.0609, the “area with substrate ENLYLQS” value was 0.0729 and the “area with substrate ENLYMQS” value was found to be 0.0951. Also, the “area with substrate ENLYNQS” value was found to be 0.0643, the “area with substrate ENLYQQS” value was found to be 0.0681, the “area with substrate ENLYRQS” value was found to be 0.0571 and the “area with substrate ENLYTQS” value came to 0.0748. The “area with substrate ENLYVQS” value worked out at 0.114 and the “area with substrate ENLYWQS” value came to 0.0806.

With MGESLFKGPRDYNPISSSICHLTNESDGHTTSLYGIGFGPFIITNKHLFRRNNGTLVVQSLTGVFKVKDTTTLQQHLVDGRDMIIIRMPKDFPPFPQKLKFREPQREERICLVTTNFQTKSMSSMVSDTSCTFPSGDGIFWKHWIQTKDGQCGSPLVSTRDGFIVGIHSASNFTNTNNYFTSVPKNFMELLTNQEAQQWVSGWRLNADSVLWGGHKVFMVKPEEPFQPVKEATQL [H62T], the “area with substrate ENLYAQS” value turned out to be 0.0747, the “area with substrate ENLYCQS” value was determined as 0.102, the “area with substrate ENLYDQS” value is 0.0581 and the “area with substrate ENLYEQS” value was found to be 0.0652. The “area with substrate ENLYHQS” value was 0.0643, the “area with substrate ENLYIQS” value came to 0.108, the “area with substrate ENLYKQS” value is 0.0603 and the “area with substrate ENLYMQS” value was determined as 0.0774. In addition, the “area with substrate ENLYNQS” value was 0.0892, the “area with substrate ENLYRQS” value came out at 0.0613, the “area with substrate ENLYSQS” value worked out at 0.049 and the “area with substrate ENLYTQS” value was determined as 0.0754. Further, the “area with substrate ENLYVQS” value is 0.0972 and the “area with substrate ENLYWQS” value was found to be 0.0898.

In the case of MGESLFKGPRDYNPISSSICHLTNESDGHTTSLYGIGFGPFIITNKHLFRRNNGTLVVQSLGGVFKVKDTTTLQQHLVDGRDMIIIRMPKDFPPFPQKLKFREPQREERICLVTTNFQTKSMSSMVSDTSCTFPSGDGIFWKHWIQTKDGQCGSPLVSTRDGFIVGIHSASNFTNTNNYFTSVPKNFMELLTNQEAQQWVSGWRLNADSVLWGGHKVFMVKPEEPFQPVKEATQL [H62G], the “area with substrate ENLYAQS” value came to 0.083, the “area with substrate ENLYDQS” value was found to be 0.0742, the “area with substrate ENLYEQS” value worked out at 0.0634 and the “area with substrate ENLYGQS” value came out at 0.0553. For the same variant, the “area with substrate ENLYHQS” value stood at 0.0751, the “area with substrate ENLYIQS” value worked out at 0.125, the “area with substrate ENLYKQS” value amounted to 0.0576 and the “area with substrate ENLYNQS” value is 0.0722. The “area with substrate ENLYPQS” value is 0.038, the “area with substrate ENLYSQS” value turned out to be 0.0586, the “area with substrate ENLYWQS” value stood at 0.0816 and the “area with substrate ENLYYQS” value worked out at 0.105.

MGESLFKGPRDYNPISSSICHLTNESDGHTTSLYGIGFGPFIITNKHLFRRNNGTLVVWSLHGVFKVKDTTTLQQHLVDGRDMIIIRMPKDFPPFPQKLKFREPQREERICLVTTNFQTKSMSSMVSDTSCTFPSGDGIFWKHWIQTKDGQCGSPLVSTRDGFIVGIHSASNFTNTNNYFTSVPKNFMELLTNQEAQQWVSGWRLNADSVLWGGHKVFMVKPEEPFQPVKEATQL [Q59W]: the “area with substrate ENLYAQS” value worked out at 0.08, the “area with substrate ENLYDQS” value is 0.0742, the “area with substrate ENLYEQS” value is 0.0737 and the “area with substrate ENLYGQS” value is 0.0688. In addition, the “area with substrate ENLYHQS” value turned out to be 0.0746, the “area with substrate ENLYIQS” value was 0.151, the “area with substrate ENLYMQS” value came out at 0.105 and the “area with substrate ENLYNQS” value worked out at 0.0747. The “area with substrate ENLYWQS” value worked out at 0.106 and the “area with substrate ENLYYQS” value was 0.0872.

MGESLFKGPRDYNPISSSICHLTNESDGHTTSLYGIGFGPFIITNKHLFRRNNGTLVVSSLHGVFKVKDTTTLQQHLVDGRDMIIIRMPKDFPPFPQKLKFREPQREERICLVTTNFQTKSMSSMVSDTSCTFPSGDGIFWKHWIQTKDGQCGSPLVSTRDGFIVGIHSASNFTNTNNYFTSVPKNFMELLTNQEAQQWVSGWRLNADSVLWGGHKVFMVKPEEPFQPVKEATQL [Q59S]: the “area with substrate ENLYAQS” value was found to be 0.087, the “area with substrate ENLYDQS” value stood at 0.0845, the “area with substrate ENLYHQS” value stood at 0.0629 and the “area with substrate ENLYIQS” value amounted to 0.119. For the same variant, the “area with substrate ENLYKQS” value is 0.0687, the “area with substrate ENLYMQS” value came out at 0.0527, the “area with substrate ENLYPQS” value worked out at 0.0754 and the “area with substrate ENLYQQS” value amounted to 0.069. The “area with substrate ENLYRQS” value amounted to 0.0538, the “area with substrate ENLYSQS” value was 0.0682, the “area with substrate ENLYTQS” value was determined as 0.108 and the “area with substrate ENLYWQS” value was 0.0779.

As to MGESLFKGPRDYNPISSSICHLTNESDGHTTSLYGIGFGPFIITNKHLFRRNNGTLPVQSLHGVFKVKDTTTLQQHLVDGRDMIIIRMPKDFPPFPQKLKFREPQREERICLVTTNFQTKSMSSMVSDTSCTFPSGDGIFWKHWIQTKDGQCGSPLVSTRDGFIVGIHSASNFTNTNNYFTSVPKNFMELLTNQEAQQWVSGWRLNADSVLWGGHKVFMVKPEEPFQPVKEATQL [V57P], the “area with substrate ENLYAQS” value is 0.0632, the “area with substrate ENLYDQS” value stood at 0.0458, the “area with substrate ENLYEQS” value came to 0.0461 and the “area with substrate ENLYGQS” value came to 0.0496. Also, the “area with substrate ENLYHQS” value turned out to be 0.0405, the “area with substrate ENLYIQS” value stood at 0.037, the “area with substrate ENLYKQS” value is 0.039 and the “area with substrate ENLYLQS” value was 0.0468. Further, the “area with substrate ENLYNQS” value came out at 0.0467, the “area with substrate ENLYPQS” value was 0.0357, the “area with substrate ENLYRQS” value came out at 0.0625 and the “area with substrate ENLYSQS” value is 0.0397.
